Over roughly 81,000 sequences, “one-hybrid fitness for binding NBS DNA” has its median near -0.1; the highest 2% begin near 0.36. Some of the results follow.
B1: Caulobacter ParB omega fusion; a variant is named by its letters at X, in order, B8GW30 (parent)
chain: MESVVVGEPGMSEGRRGLGRGLSALLGEVDAAPAQAPGEQLGGSREAPIEILQRNPDQPRRTFREEDLEDLSNSIREKGVLQPILVRPSPDTAGEYQIVAGERAWRAAQRAGLKTVPIMVRELDDLAVLEIGIIENVQRADLNVLEEALSYKVLMEKFERTQENIAQTIGKSXSHVANXMRLLXLPDEVQSYLVSGELTAXHARAIAAAADPVALAKQIIEGGLSVRETEALARKAPNLSAGKSKGGRPPRVKDTDTQALESDLSSVLGLDVSIDHRGSTGTLTITYATLEQLDDLCNRLTRGI

Variants of: B1
Test: one-hybrid fitness for binding NBS DNA (the Noc-binding site; scaled: cognate 1, non-cognate 0); higher = stronger binding
Conditions: with NBS DNA site
In short: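 On M9-minus-histidine containing 0.1 mM IPTG and 5 mM 3-AT, E. coli USO cells with a HIS3 reporter, site 19 bp from the promoter, grew 48 hours at 37°C to select Caulobacter ParB libraries randomised at four specificity codons. Plasmids from before and after were Illumina-sequenced, with three replicate libraries pooled and variants under 10 reads left out. Fitness is the log change in variant-to-wild-type read ratio, rescaled against cognate and non-cognate.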
With YHKC the “one-hybrid fitness for binding NBS DNA” value was at most 0.2. DTVR was tested, and the “one-hybrid fitness for binding NBS DNA” value was at most 0.2. In the case of PKKL, the “one-hybrid fitness for binding NBS DNA” value is reported as at most 0.2. With RAHY the “one-hybrid fitness for binding NBS DNA” value was at most 0.2. For PVSD, the “one-hybrid fitness for binding NBS DNA” value was at most 0.2. With SIMT the “one-hybrid fitness for binding NBS DNA” value was at most 0.2. For DRLD, the “one-hybrid fitness for binding NBS DNA” value was at most 0.2. For TNVI, the “one-hybrid fitness for binding NBS DNA” value was at most 0.2. In the case of GVPQ, the “one-hybrid fitness for binding NBS DNA” value is reported as at most 0.2. FYIR was tested, and the “one-hybrid fitness for binding NBS DNA” value was at most 0.2. With DLTL the “one-hybrid fitness for binding NBS DNA” value was at most 0.2. With GATC the “one-hybrid fitness for binding NBS DNA” value was at most 0.2. With WPIS the “one-hybrid fitness for binding NBS DNA” value was at most 0.2. In the case of TKLV, the “one-hybrid fitness for binding NBS DNA” value is reported as at most 0.2. In the case of VAIW, the “one-hybrid fitness for binding NBS DNA” value is reported as at most 0.2. With TYLQ the “one-hybrid fitness for binding NBS DNA” value was at most 0.2. QDQY was tested, and the “one-hybrid fitness for binding NBS DNA” value was at most 0.2. MTHW was tested, and the “one-hybrid fitness for binding NBS DNA” value was at most 0.2. For QTIM, the “one-hybrid fitness for binding NBS DNA” value was at most 0.2. YTIM was tested, and the “one-hybrid fitness for binding NBS DNA” value was at most 0.2. In the case of QPVW, the “one-hybrid fitness for binding NBS DNA” value is reported as at most 0.2. With KCHG the “one-hybrid fitness for binding NBS DNA” value was at most 0.2. QSIN was tested, and the “one-hybrid fitness for binding NBS DNA” value was at most 0.2. In the case of LNFC, the “one-hybrid fitness for binding NBS DNA” value is reported as at most 0.2. For MLFR, the “one-hybrid fitness for binding NBS DNA” value was at most 0.2. In the case of GVYG, the “one-hybrid fitness for binding NBS DNA” value is reported as at most 0.2. For FHMG, the “one-hybrid fitness for binding NBS DNA” value was at most 0.2. HQMP was tested, and the “one-hybrid fitness for binding NBS DNA” value was at most 0.2. In the case of MLHG, the “one-hybrid fitness for binding NBS DNA” value is reported as at most 0.2. In the case of HMIV, the “one-hybrid fitness for binding NBS DNA” value is reported as at most 0.2. IRIT was tested, and the “one-hybrid fitness for binding NBS DNA” value was at most 0.2. FVIE was tested, and the “one-hybrid fitness for binding NBS DNA” value was at most 0.2. With HHLT the “one-hybrid fitness for binding NBS DNA” value was at most 0.2. TGCT was tested, and the “one-hybrid fitness for binding NBS DNA” value was at most 0.2. With QWGA the “one-hybrid fitness for binding NBS DNA” value was at most 0.2. With YTPS the “one-hybrid fitness for binding NBS DNA” value was at most 0.2. With QPNR the “one-hybrid fitness for binding NBS DNA” value was 0.236. WRSI was tested, and the “one-hybrid fitness for binding NBS DNA” value was at most 0.2. In the case of KFPI, the “one-hybrid fitness for binding NBS DNA” value is reported as at most 0.2. With IISE the “one-hybrid fitness for binding NBS DNA” value was at most 0.2. In the case of YRLV, the “one-hybrid fitness for binding NBS DNA” value is reported as at most 0.2. With MQTK the “one-hybrid fitness for binding NBS DNA” value was at most 0.2. For ESRR, the “one-hybrid fitness for binding NBS DNA” value was at most 0.2. For WITF, the “one-hybrid fitness for binding NBS DNA” value was at most 0.2. YDLE was tested, and the “one-hybrid fitness for binding NBS DNA” value was at most 0.2. With SPIY the “one-hybrid fitness for binding NBS DNA” value was at most 0.2. QWTN was tested, and the “one-hybrid fitness for binding NBS DNA” value was at most 0.2. For AQNL, the “one-hybrid fitness for binding NBS DNA” value was at most 0.2. For VNTQ, the “one-hybrid fitness for binding NBS DNA” value was at most 0.2. For ATYK, the “one-hybrid fitness for binding NBS DNA” value was at most 0.2. For PEAP, the “one-hybrid fitness for binding NBS DNA” value was at most 0.2. For KRDG, the “one-hybrid fitness for binding NBS DNA” value was at most 0.2. TRTP was tested, and the “one-hybrid fitness for binding NBS DNA” value was at most 0.2. In the case of VLPF, the “one-hybrid fitness for binding NBS DNA” value is reported as at most 0.2. With CCKS the “one-hybrid fitness for binding NBS DNA” value was at most 0.2. QGVH was tested, and the “one-hybrid fitness for binding NBS DNA” value was at most 0.2. For YLPV, the “one-hybrid fitness for binding NBS DNA” value was at most 0.2. For VALE, the “one-hybrid fitness for binding NBS DNA” value was at most 0.2. With ETIH the “one-hybrid fitness for binding NBS DNA” value was at most 0.2. With HNVS the “one-hybrid fitness for binding NBS DNA” value was at most 0.2. NIDH was tested, and the “one-hybrid fitness for binding NBS DNA” value was at most 0.2. In the case of AHWC, the “one-hybrid fitness for binding NBS DNA” value is reported as at most 0.2. In the case of GIDF, the “one-hybrid fitness for binding NBS DNA” value is reported as at most 0.2. With VLFL the “one-hybrid fitness for binding NBS DNA” value was at most 0.2. For SVEI, the “one-hybrid fitness for binding NBS DNA” value was at most 0.2. In the case of RLQG, the “one-hybrid fitness for binding NBS DNA” value is reported as at most 0.2. With PYNA the “one-hybrid fitness for binding NBS DNA” value was at most 0.2. MKCF was tested, and the “one-hybrid fitness for binding NBS DNA” value was at most 0.2. In the case of WGQC, the “one-hybrid fitness for binding NBS DNA” value is reported as at most 0.2. For PNCG, the “one-hybrid fitness for binding NBS DNA” value was at most 0.2. For QPFR, the “one-hybrid fitness for binding NBS DNA” value was at most 0.2. KELR was tested, and the “one-hybrid fitness for binding NBS DNA” value was at most 0.2. With YVAM the “one-hybrid fitness for binding NBS DNA” value was at most 0.2. In the case of SPQV, the “one-hybrid fitness for binding NBS DNA” value is reported as at most 0.2. With KSVG the “one-hybrid fitness for binding NBS DNA” value was at most 0.2. In the case of VKLW, the “one-hybrid fitness for binding NBS DNA” value is reported as at most 0.2. GSIL was tested, and the “one-hybrid fitness for binding NBS DNA” value was at most 0.2. LEAV was tested, and the “one-hybrid fitness for binding NBS DNA” value was at most 0.2. With PSFW the “one-hybrid fitness for binding NBS DNA” value was at most 0.2. With TTYI the “one-hybrid fitness for binding NBS DNA” value was at most 0.2. NALW was tested, and the “one-hybrid fitness for binding NBS DNA” value was at most 0.2. THGR was tested, and the “one-hybrid fitness for binding NBS DNA” value was at most 0.2. With VSGF the “one-hybrid fitness for binding NBS DNA” value was at most 0.2. TKWY was tested, and the “one-hybrid fitness for binding NBS DNA” value was at most 0.2. For PRHF, the “one-hybrid fitness for binding NBS DNA” value was at most 0.2. With LMMA the “one-hybrid fitness for binding NBS DNA” value was at most 0.2. With SDKS the “one-hybrid fitness for binding NBS DNA” value was at most 0.2. RLGS was tested, and the “one-hybrid fitness for binding NBS DNA” value was 0.419. TAMT was tested, and the “one-hybrid fitness for binding NBS DNA” value was at most 0.2. For GLKL, the “one-hybrid fitness for binding NBS DNA” value was at most 0.2. LTHR was tested, and the “one-hybrid fitness for binding NBS DNA” value was at most 0.2. RIRQ was tested, and the “one-hybrid fitness for binding NBS DNA” value was at most 0.2. TLME was tested, and the “one-hybrid fitness for binding NBS DNA” value was at most 0.2. In the case of PYRR, the “one-hybrid fitness for binding NBS DNA” value is reported as at most 0.2. KYQA was tested, and the “one-hybrid fitness for binding NBS DNA” value was at most 0.2. HEVS was tested, and the “one-hybrid fitness for binding NBS DNA” value was at most 0.2. For EYLY, the “one-hybrid fitness for binding NBS DNA” value was at most 0.2.

Source: a collection of fitness landscapes (doi:10.1016/j.celrep.2020.107928)
